Data reported in the GPR68 mutational scans of Howard et al. (2025).
Scores with a large standard error are left out. The source holds two more conditions with little spread; they are left out. Read del as a deletion of the residues named and ins as an insertion between two positions. For some assays here: The concentration of ogerin is not given here.

B1: GPR68, Q15743 (parent)
chain: MGNITADNSSMSCTIDHTIHQTLAPVVYVTVLVVGFPANCLSLYFGYLQIKARNELGVYLCNLTVADLFYICSLPFWLQYVLQHDNWSHGDLSCQVCGILLYENIYISVGFLCCISVDRYLAVAHPFRFHQFRTLKAAVGVSVVIWAKELLTSIYFLMHEEVIEDENQHRVCFEHYPIQAWQRAINYYRFLVGFLFPICLLLASYQGILRAVRRSHGTQKSRKDQIQRLVLSTVVIFLACFLPYHVLLLVRSVWEASCDFAKGVFNAYHFSLLLTSFNCVADPVLYCFVSETTHRDLARLRGACLAFLTCSRTGRAREAYPLGAPEASGKSGAQGEEPELLTKLHPAFQTPNSPGSGGFPTGRLA

Key:
[1] = variants of: B1; test: cAMP reporter score (Enrich2 score, wild type = 0); higher = more signal; HEK293T, FACS bins
[2] = variants of: B1; test: surface expression score (Enrich2 score, wild type = 0); higher = more signal; HEK293T, FACS bins

| Variant | cAMP reporter score ([1]; pH 5.5) | cAMP reporter score ([1]; pH 6) | cAMP reporter score ([1]; pH 6, modulator: ogerin) | cAMP reporter score ([1]; pH 6.5, modulator: ogerin) | surface expression score [2] |
| --- | --- | --- | --- | --- | --- |
| D118M | -0.755 | 1.57 | 0.277 | -0.671 | -2.91 |
| D118W | -0.561 | 0.164 | -1.2 | -0.591 | -2.81 |
| D118I | -0.408 | -0.534 | -0.497 | – | – |
| D118S | 2.11 | – | 3.11 | 3.29 | -0.37 |
| D118K | -1.37 | -0.818 | – | – | – |
| D118H | -0.421 | -0.589 | – | -0.44 | – |
| D118A | -0.421 | – | – | -0.409 | -0.41 |
| D118R | -1.92 | -0.713 | – | -2.33 | -1.69 |
| D118Y | -0.406 | -0.702 | -3.56 | -0.436 | – |
| D118N | -0.667 | 2.92 | 0.222 | 0.188 | 1.13 |
| D118_R119insGSG | -1.7 | -1.31 | – | -2.81 | -2.04 |
| A122G | -0.526 | 0.633 | -0.705 | -1.04 | -2.5 |
| A122E | -2.12 | -0.419 | -1.46 | -1.34 | -1.1 |
| A122Y | -0.663 | -0.833 | -1.95 | -0.616 | – |
| A122C | -1.8 | -1.51 | -1.27 | -1.26 | – |
| A122T | -1.73 | -1.26 | – | -0.918 | 0.449 |
| A122I | -1.01 | – | -1.09 | -1.16 | -0.992 |

| Variant | cAMP reporter score ([1]; pH 5.5) | cAMP reporter score ([1]; pH 6) | cAMP reporter score ([1]; pH 6, modulator: ogerin) | cAMP reporter score ([1]; pH 6.5, modulator: ogerin) | surface expression score [2] |
| --- | --- | --- | --- | --- | --- |
| A122H | -0.831 | -1.59 | -0.432 | -1.55 | -0.394 |
| A122S | -0.574 | -0.912 | -1.23 | -0.614 | -0.303 |
| A122M | -2.71 | -1 | -1.69 | -0.253 | -0.118 |
| A122L | -0.413 | -2.04 | -0.686 | -0.434 | -0.183 |
| A122D | -1.45 | -0.827 | -1.51 | -1.37 | -2.26 |
| A122Q | -1.57 | – | -0.472 | -1.81 | -0.28 |
| A122K | -0.814 | -0.362 | -0.945 | -0.608 | -0.23 |
| A122F | -1.95 | -1.32 | -2.11 | -2.21 | -0.639 |
| A122P | -1.51 | -0.992 | -1.24 | -1.79 | -2.11 |
| A122R | -0.394 | – | -0.699 | -0.671 | -0.007 |
| S108del | -1.7 | -0.981 | -1.33 | -1.01 | -1.86 |
| L112_C113insGSG | -2.35 | – | -2.07 | -1.42 | -0.841 |
| Y120_L121insG | -2.02 | -1.43 | -1.5 | -0.73 | -2.28 |
| A124C | 1.04 | 3.52 | 1.23 | 3.19 | 1.09 |
| A124F | -1.06 | -0.002 | -1.23 | -1.26 | -1.54 |
| A124E | -1.12 | -1.13 | -1.33 | -0.771 | -2.1 |
| A124D | -1.43 | – | -0.678 | -0.444 | -0.403 |
